Experimental data published in the supplement of paper PMC8728848.
The other results are listed elsewhere or left out.

Tests used:
Test in all cases: glycan array binding signal (z-score within array); higher = stronger binding
Details in all cases: glycan notation: IUPAC condensed, linker removed
[1] = target: Neu5Ac(a2-6)Gal(b1-4)GlcNAc(b1-2)Man(a1-3)[Neu5Ac(a2-3)Gal(b1-4)GlcNAc(b1-2)Man(a1-6)]Man(b1-4)GlcNAc(b1-4)GlcNAc
In short: (§1)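 Negative Z-scores can be read as non-binding. The Z-score is calculated within each array and then averaged across arrays of one protein sequence at different concentrations or buffers and across linkers. Arrays, 3228 in all, were curated from the Consortium for Functional Glycomics database and kept only where the protein sequence was available.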

[2] = target: Neu5Ac(a2-6)Gal(b1-4)GlcNAc(b1-2)Man(a1-3)[Neu5Ac(a2-6)Gal(b1-4)GlcNAc(b1-2)Man(a1-6)]Man(b1-4)GlcNAc(b1-4)GlcNAc
In short: as §1

[3] = target: Neu5Ac(a2-6)Gal(b1-4)GlcNAc(b1-2)Man(a1-3)[Neu5Ac(a2-6)Gal(b1-4)GlcNAc(b1-2)Man(a1-6)]Man(b1-4)GlcNAc(b1-4)[Fuc(a1-6)]GlcNAc
In short: as §1

[4] = target: Neu5Ac(a2-6)Gal(b1-4)GlcNAc(b1-2)Man(a1-6)Man(b1-4)GlcNAc(b1-4)GlcNAc
In short: as §1

[5] = target: Neu5Ac(a2-6)Gal(b1-4)GlcNAc(b1-2)Man(a1-6)[Gal(b1-4)GlcNAc(b1-2)Man(a1-3)]Man(b1-4)GlcNAc(b1-4)GlcNAc
In short: as §1

[6] = target: Neu5Ac(a2-6)Gal(b1-4)GlcNAc(b1-2)Man(a1-6)[GlcNAc(b1-2)Man(a1-3)]Man(b1-4)GlcNAc(b1-4)GlcNAc
In short: as §1

[7] = target: Neu5Ac(a2-6)Gal(b1-4)GlcNAc(b1-2)Man(a1-6)[Man(a1-3)]Man(b1-4)GlcNAc(b1-4)GlcNAc
In short: as §1

[8] = target: Neu5Ac(a2-6)Gal(b1-4)GlcNAc(b1-2)[Neu5Ac(a2-6)Gal(b1-4)GlcNAc(b1-4)]Man(a1-3)[GlcNAc(b1-4)][Neu5Ac(a2-6)Gal(b1-4)GlcNAc(b1-2)[Neu5Ac(a2-6)Gal(b1-4)GlcNAc(b1-6)]Man(a1-6)]Man(b1-4)GlcNAc(b1-4)GlcNAc
In short: as §1

[9] = target: Neu5Ac(a2-6)Gal(b1-4)GlcNAc(b1-2)[Neu5Ac(a2-6)Gal(b1-4)GlcNAc(b1-4)]Man(a1-3)[GlcNAc(b1-4)][Neu5Ac(a2-6)Gal(b1-4)GlcNAc(b1-4)Man(a1-6)]Man(b1-4)GlcNAc(b1-4)GlcNAc
In short: as §1

[10] = target: Neu5Ac(a2-6)Gal(b1-4)GlcNAc(b1-2)[Neu5Ac(a2-6)Gal(b1-4)GlcNAc(b1-6)]Man(a1-6)[Neu5Ac(a2-6)Gal(b1-4)GlcNAc(b1-2)Man(a1-3)][GlcNAc(b1-4)]Man(b1-4)GlcNAc(b1-4)GlcNAc
In short: as §1

[11] = target: Neu5Ac(a2-6)Gal(b1-4)GlcNAc(b1-3)Gal(b1-3)GlcNAc
In short: as §1

[12] = target: Neu5Ac(a2-6)Gal(b1-4)GlcNAc(b1-3)Gal(b1-4)GlcNAc
In short: as §1

[13] = target: Neu5Ac(a2-6)Gal(b1-4)GlcNAc(b1-3)Gal(b1-4)GlcNAc(b1-2)Man(a1-3)[Neu5Ac(a2-6)Gal(b1-4)GlcNAc(b1-3)Gal(b1-4)GlcNAc(b1-2)Man(a1-6)]GalNAc
In short: as §1

[14] = target: Neu5Ac(a2-6)Gal(b1-4)GlcNAc(b1-3)Gal(b1-4)GlcNAc(b1-3)Gal(b1-4)GlcNAc
In short: as §1

[15] = target: Neu5Ac(a2-6)Gal(b1-4)GlcNAc(b1-3)Gal(b1-4)GlcNAc(b1-3)Gal(b1-4)GlcNAc(b1-2)Man(a1-3)[Neu5Ac(a2-6)Gal(b1-4)GlcNAc(b1-3)Gal(b1-4)GlcNAc(b1-3)Gal(b1-4)GlcNAc(b1-2)Man(a1-6)]GalNAc
In short: as §1

[16] = target: Neu5Ac(a2-6)Gal(b1-4)GlcNAc(b1-3)Gal(b1-4)GlcNAc(b1-3)GalNAc
In short: as §1

[17] = target: Neu5Ac(a2-6)Gal(b1-4)GlcNAc(b1-3)Gal(b1-4)GlcNAc(b1-3)[Neu5Ac(a2-6)Gal(b1-4)GlcNAc(b1-3)Gal(b1-4)GlcNAc(b1-6)]GalNAc
In short: as §1

[18] = target: Neu5Ac(a2-6)Gal(b1-4)GlcNAc(b1-3)Gal(b1-4)GlcNAc(b1-6)[Gal(b1-3)]GalNAc
In short: as §1

[19] = target: Neu5Ac(a2-6)Gal(b1-4)GlcNAc(b1-3)Gal(b1-4)[Fuc(a1-3)]GlcNAc(b1-3)Gal(b1-4)[Fuc(a1-3)]GlcNAc
In short: as §1

[20] = target: Neu5Ac(a2-6)Gal(b1-4)GlcNAc(b1-3)GalNAc
In short: as §1

[21] = target: Neu5Ac(a2-6)Gal(b1-4)GlcNAc(b1-3)[Neu5Ac(a2-6)Gal(b1-4)GlcNAc(b1-6)]GalNAc
In short: as §1

[22] = target: Neu5Ac(a2-6)Gal(b1-4)GlcNAc(b1-6)GalNAc
In short: as §1

[23] = target: Neu5Ac(a2-6)Gal(b1-4)GlcNAc(b1-6)[Gal(b1-3)GlcNAc(b1-3)]Gal(b1-4)Glc
In short: as §1

[24] = target: Neu5Ac(a2-6)Gal(b1-4)GlcNAc(b1-6)[Gal(b1-3)]GalNAc
In short: as §1

[25] = target: Neu5Ac(a2-6)Gal(b1-4)GlcNAc6S
In short: as §1

Neu5Ac(a2-6)GalNAc = target: Neu5Ac(a2-6)GalNAc
In short: as §1

[26] = target: Neu5Ac(a2-6)GalNAc(b1-4)GlcNAc
In short: as §1

[27] = target: Neu5Ac(a2-6)GalNAc(b1-4)GlcNAc6S
In short: as §1

[28] = target: Neu5Ac(a2-6)GlcNAc(b1-4)GlcNAc
In short: as §1

[29] = target: Neu5Ac(a2-6)GlcNAc(b1-4)GlcNAc(b1-4)GlcNAc
In short: as §1

B1: Blon2468mut (Bifidobacterium longum) (protein)
chain: MTFIKQMMPRYVASMTAGIVAAAMAATCAFAPVANADAVSPTQETIQSTGRHFMVYYRAWRDVTMKGVNTDLPDDNWISMYDIPYGVDVVNIFSYVPSGQEEQAQPFYDKLKSDYAPYLHSRGIKLVRGIDYTGVAVNGFRTFMKEQNKTESEATEADYDAYAKQVIDKYMISVGLDGLDIDMQAHPNDADVKISDNVIRALSKHIGPKSAKPDTTMFLYDTNGSYLNPFKNVAECFDYVAYQQYGSSSDRTARAAADYQPYIGNEFVPGLTFPEEGDMNNRWYDATEPYEESHFYQVASYVREHNLGGMFVYALDRDGRNYDEDLRRIVPSNLLWTKTAIAESEGMALDTAKTAANHYLDRMSLRQVIDDNAASADKARDMVGKAANLYETNKAVLGGDYGEGFSNTYDPTLEAGLLGIDISVLQQQIDKSSEIIGADTAESDAKTALRMARDAAIDGLTGKIYTADQVSAWSQALKAALDATVPVPTPDSTDQNGNRDKVTNHKVQGQPKQLSATGISTDIIVAVGVTLAIAGVALSLSRKLS
With B1 the “glycan array binding signal (z-score)” value [1] was 0.012, the “glycan array binding signal (z-score)” value [2] was -0.032 and the “glycan array binding signal (z-score)” value [3] was -0.077. For the same binder, the “glycan array binding signal (z-score)” value [4] was -0.076, the “glycan array binding signal (z-score)” value [5] was -0.062 and the “glycan array binding signal (z-score)” value [6] was -0.076. The “glycan array binding signal (z-score)” value [7] was -0.065, the “glycan array binding signal (z-score)” value [8] was -0.029 and the “glycan array binding signal (z-score)” value [9] was -0.086. For the same binder, the “glycan array binding signal (z-score)” value [10] was -0.069, the “glycan array binding signal (z-score)” value [11] was -0.081 and the “glycan array binding signal (z-score)” value [12] was -0.042. For the same binder, the “glycan array binding signal (z-score)” value [13] was -0.073, the “glycan array binding signal (z-score)” value [14] was -0.077 and the “glycan array binding signal (z-score)” value [15] was -0.054. The “glycan array binding signal (z-score)” value [16] was -0.067, the “glycan array binding signal (z-score)” value [17] was -0.059 and the “glycan array binding signal (z-score)” value [18] was -0.075. The “glycan array binding signal (z-score)” value [19] was -0.078, the “glycan array binding signal (z-score)” value [20] was -0.056 and the “glycan array binding signal (z-score)” value [21] was -0.036. For the same binder, the “glycan array binding signal (z-score)” value [22] was -0.075, the “glycan array binding signal (z-score)” value [23] was -0.066 and the “glycan array binding signal (z-score)” value [24] was -0.068. The “glycan array binding signal (z-score)” value [25] was -0.055, the “glycan array binding signal (z-score)” value (Neu5Ac(a2-6)GalNAc) was -0.065 and the “glycan array binding signal (z-score)” value [26] was 0.002. For the same binder, the “glycan array binding signal (z-score)” value [27] was -0.085, the “glycan array binding signal (z-score)” value [28] was -0.077 and the “glycan array binding signal (z-score)” value [29] was -0.051.
